{"source": "PubChem BioAssay AID2546", "about": "(National Center for Advancing Translational Sciences (NCATS), 2010)", "note": "About 11,000 (3.5%) of roughly 310,000 compounds were called active. This list was built around the results that the source calls inconclusive (neither active nor inactive); the mix of calls is not that of the screen. Calls come from the whole dose curve; as a rule, active = well fitted inhibition curve with a large enough effect; inconclusive = small, poorly fitted or top-dose-only effect, or effect the other way; inactive = flat fitted curve, though single readings scatter. Potencies of inconclusive entries are left out as doubtful fits. % is set by controls: 0 for no effect and ±100 for the full control effect; potency is the fitted concentration of half-maximal effect; tags give direction and shape of the fitted curve.", "data": [{"experiment": "VP16 counterscreen qHTS for inhibitors of ROR gamma transcriptional activity;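 note: Gal4-VP16 expression switched on by copper sulfate through the metallothionein promoter; nearly all actives have a fitted effect of over 50% in size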", "details": "Drosophila S2 Gal4-VP16 UAS-luciferase, luminescence, 20 h; activity, negative = inhibition: at 53.6 µM (top of the series)", "values": [{"compound": "CCCCCCNS(=O)(=O)c1ccccc1Br", "Potency": "inconclusive [inhibitor, single point]"}, {"compound": "COc1ccc(C(=O)NCc2oc(-c3ccccc3)cc2C(=O)O)cc1", "Potency": "inactive"}, {"compound": "Cc1cc(C)c(S(=O)(=O)Nc2ccccc2-c2ccccc2)c(C)c1", "Potency": "inconclusive [inhibitor, single point]"}, {"compound": "CCCOc1ccc(CCC(=O)O)cc1", "Potency": "inactive"}, {"compound": "COc1ccc(-c2c[n+](CC(=O)OC3CC(C)CCC3C(C)C)c3n2CCC3)cc1", "note": "(centres undefined)", "Potency": "active: 7.94 µM"}, {"compound": "O=S(=O)(Nc1cc(Sc2cccc3cccnc23)c(O)c2ccccc12)c1ccccc1", "Potency": "active: 2.82 µM"}, {"compound": "O=C(N/N=C/c1cccnc1)c1cc2ccccc2cc1O", "Potency": "inconclusive [inhibitor, single point]"}, {"compound": "CN(C)S(=O)(=O)c1cc(NC(=O)c2ccc(-n3ccnc3)c([N+](=O)[O-])c2)ccc1Cl", "Potency": "inconclusive [inhibitor, single point]"}, {"compound": "Cc1cccc2cc3c(NC(=O)c4ccccn4)nn(C)c3nc12", "Potency": "active: 3.98 µM"}, {"compound": "S=C1NCCc2ccccc2C1c1ccccc1", "note": "(centres undefined)", "Potency": "active: 0.158 µM"}, {"compound": "Cc1cccc(NC(=O)CCc2c(C)nn(-c3ccc(N4CCCCC4)nn3)c2C)c1", "Potency": "inconclusive [inhibitor, full curve]"}, {"compound": "Cc1[nH]c(=S)c(C#N)c(C)c1Cc1ccc(Cl)cc1Cl", "Potency": "active: 20 µM"}, {"compound": "CCc1ccccc1NC(=S)NC1CC2CCC(C1)N2Cc1ccc(F)cc1", "note": "(centres undefined)", "Potency": "inconclusive [inhibitor, single point]"}, {"compound": "CCOC(=O)CCN1C(=O)[C@H]2[C@H]3[C@H](O)[C@H](O)C/C(=N/NC(=O)OCc4ccc(OC)cc4)[C@H]3CC[C@@H]2C1=O", "activity, negative = inhibition": "inactive: 0.0603% [at 10 µM]"}, {"compound": "O=C(Nc1cccc(NC(=O)c2ccc(Cl)cc2)n1)c1ccc(Cl)cc1", "Potency": "inactive"}, {"compound": "Cc1ccc(N(C)S(=O)(=O)c2cc(-c3cnc(C4CC4)o3)ccc2C)cc1", "Potency": "inconclusive [inhibitor, single point]"}, {"compound": "COc1ccc(OC)c(C2NC(=O)c3sc(=S)n(-c4ccccc4)c3N2)c1", "note": "(centres undefined)", "Potency": "inactive"}, {"compound": "Fc1ccccc1NC(=S)NCCc1ccc(Cl)cc1", "Potency": "inconclusive [inhibitor, single point]"}, {"compound": "CCCCCCC(=O)Nc1cc2c(C)cc(=O)oc2cc1C", "Potency": "inactive"}, {"compound": "NC(=O)c1cc2cc([N+](=O)[O-])ccc2oc1=O", "Potency": "inactive"}, {"compound": "COc1ccc(NC(=O)c2oc3ccccc3c2CSC)cn1", "Potency": "inactive"}, {"compound": "Cc1ccc(C(=O)N/N=C/c2ccc(S(=O)(=O)O)o2)c(Cl)c1", "Potency": "inconclusive [inhibitor, partial curve]"}, {"compound": "Clc1ccc(SCc2nc3ccccc3[nH]2)cc1", "Potency": "inconclusive [inhibitor, single point]"}, {"compound": "Cc1cc(C)cc(C(=O)NCC(=O)OCc2cc([N+](=O)[O-])cc3c2OCOC3)c1", "Potency": "inconclusive [inhibitor, full curve]"}, {"compound": "COc1cc(NC(=S)NCCc2c[nH]c3ccccc23)c(OC)cc1Cl", "Potency": "active: 3.55 µM"}, {"compound": "O=C(Oc1ccc(Cl)c2cccnc12)c1ccco1", "Potency": "active: 1.58 µM"}, {"compound": "CCCCNC(=O)c1cc2c(=O)n3cccc(C)c3nc2n(Cc2ccccc2)c1=N", "Potency": "inactive"}, {"compound": "CCCCOC(=O)c1ccc(NC(=O)C(=O)NCC2CCCO2)cc1", "note": "(centres undefined)", "Potency": "inconclusive [inhibitor, partial curve, poor fit]"}, {"compound": "Cc1ccc(N(C(=O)c2nsc(Cl)c2Cl)C(C(=O)NC2CCCC2)c2ccc(O)cc2)cc1C", "note": "(centres undefined)", "Potency": "inconclusive [inhibitor, single point]"}, {"compound": "COc1ccc(Nc2cc(C)c3ccc(O)cc3n2)cc1", "Potency": "inconclusive [inhibitor, single point]"}, {"compound": "COC(=O)CC(=O)CSc1nc2c(cc1C#N)CCC2", "Potency": "active: 17.8 µM"}, {"compound": "O=C(CSc1nc2nc(-c3cccs3)cc(C(F)(F)F)c2c(=O)[nH]1)Nc1ccc(F)c(F)c1", "Potency": "inconclusive [inhibitor, single point]"}, {"compound": "CCOC(=O)c1c(NC(=O)CC)sc(C(=O)N2CCCCC2)c1C", "Potency": "inactive"}, {"compound": "O=C(NCC1CCCO1)c1ccc([N+](=O)[O-])o1", "note": "(centres undefined)", "Potency": "inactive"}, {"compound": "Cc1cccc(C)c1NC(=O)/C(C#N)=C/c1ccc(-c2ccc(C(=O)O)cc2)o1", "Potency": "inconclusive [inhibitor, single point]"}, {"compound": "COc1ccccc1NC(=S)NC(=O)Cc1ccc(Cl)cc1", "Potency": "active: 4.47 µM"}, {"compound": "N/C(=N\\OC(=O)c1ccccc1Cl)c1ccccn1", "Potency": "active: 14.1 µM"}, {"compound": "COc1ccc(CCNC(=O)c2cccnc2)cc1", "Potency": "inactive"}, {"compound": "COc1ccc(/C=C\\C(=O)NCc2ccc3[nH]c(C)cc3c2)cc1OC", "Potency": "inactive"}, {"compound": "Cc1onc(-c2c(Cl)cccc2Cl)c1C(=O)N/N=C(\\N)COc1ccc(Cl)cc1", "Potency": "active: 0.501 µM"}, {"compound": "COc1ccc2c(=O)c(-c3nc(C)cs3)coc2c1", "Potency": "active: 2.24 µM"}, {"compound": "Cc1ccc(O)c2ncccc12", "Potency": "active: 8.91 µM"}, {"compound": "Cc1occc1-c1nnc(SCC(=O)c2ccc(F)cc2)n1Cc1ccco1", "Potency": "inactive"}, {"compound": "O=C(/C=C/c1ccc(S(=O)(=O)N2CCOCC2)cc1)N1CCN(c2ccc(F)cc2)CC1", "Potency": "inconclusive [inhibitor, single point]"}, {"compound": "COc1cccc2c(N/N=C/c3ccc(O)c(O)c3)cc(C)nc12", "Potency": "inactive"}, {"compound": "CC1(O)C(=O)C=C2C=C(CCCCOCc3ccccc3)OC=C2C1=O", "note": "(centres undefined)", "activity, negative = inhibition": "inactive: -1.17% [at 10 µM]"}, {"compound": "CCS(=O)(=O)c1nc(S(=O)(=O)c2ccc(Cl)cc2)c(N2CCCC2)s1", "Potency": "inactive"}, {"compound": "C/C(=N\\Nc1nc(N)cc(Cl)n1)c1cccc([N+](=O)[O-])c1", "Potency": "inactive"}, {"compound": "CCCn1c(C2CCCN2c2nc(-c3cccc(Br)c3)cs2)nc2cc(Cl)c(Cl)cc21", "note": "(centres undefined)", "Potency": "active: 5.62 µM"}, {"compound": "Cc1ccc2nc(-c3ccccn3)oc2c1", "Potency": "inconclusive [inhibitor, partial curve]"}, {"compound": "O=C(N/N=C/c1ccccn1)c1cccc([N+](=O)[O-])c1", "Potency": "active: 12.6 µM"}, {"compound": "CN1c2ccccc2-c2nc3ccccc3n2C1c1ccccn1", "note": "(centres undefined)", "Potency": "inconclusive [inhibitor, single point]"}, {"compound": "C/C(=N\\NC(=O)COc1ccccc1)c1cccs1", "Potency": "inconclusive [activator, partial curve]"}, {"compound": "Cc1cccc(-c2nnn3c2nc(NCCc2ccc(S(N)(=O)=O)cc2)c2ccccc23)c1", "Potency": "inconclusive [inhibitor, single point]"}, {"compound": "CCOC(=O)Cc1csc(SCC(=O)c2c(N)n(CC(C)C)c(=O)n(C)c2=O)n1", "Potency": "active: 10 µM"}, {"compound": "COC(=O)c1cc(OC)c(OC)cc1NCC(=O)Nc1ccc(OC)c(OC)c1", "Potency": "inconclusive [inhibitor, single point]"}, {"compound": "COc1ccccc1CNC(=O)c1cccc(N(C)C)c1", "Potency": "inconclusive [inhibitor, single point]"}, {"compound": "N=c1nc(SCCC(=O)O)ss1", "Potency": "inconclusive [inhibitor, single point]"}, {"compound": "CC(=O)NCCc1nc2ccccc2n1Cc1ccc(Cl)cc1", "Potency": "inactive"}, {"compound": "COc1ccccc1NC(=O)/C(=C\\c1cccnc1)NC(=O)c1ccccc1", "Potency": "inactive"}, {"compound": "O=C(N/N=C/c1ccccn1)c1ccc(Br)cc1", "Potency": "active: 3.16 µM"}, {"compound": "Nc1ccc(/C=C/C(=O)c2ccco2)cc1", "Potency": "inconclusive [activator, single point]"}, {"compound": "CN(C)CCN(Cc1cc2cc3c(cc2[nH]c1=O)OCO3)C(=S)NCc1ccco1", "Potency": "inactive"}, {"compound": "Cc1ccc(Cl)cc1N1CCN(C(=O)C2CCN(S(=O)(=O)c3cccnc3)CC2)CC1", "Potency": "inconclusive [inhibitor, single point]"}, {"compound": "O=C(CCN1C(=O)/C(=C\\c2ccccc2)SC1=S)NNC(=O)c1ccccc1O", "Potency": "inactive"}, {"compound": "Cc1cc(-c2n[nH]c(=S)n2Cc2ccco2)n(C)n1", "Potency": "inconclusive [inhibitor, single point]"}, {"compound": "COc1ccc(C)cc1NC(=O)CNC(c1ccccc1)c1ccccc1", "Potency": "inactive"}, {"compound": "CC(=O)N(C)c1ccc(OCC(O)COc2ccc(N(C)C(C)=O)cc2)cc1", "Potency": "inconclusive [activator, single point]"}, {"compound": "CCOC(=O)C(C)/C(C)=N/NC(N)=S", "note": "(centres undefined)", "Potency": "active: 1.26 µM"}, {"compound": "CC(C)(C)OC(=O)[C@H](Cc1ccccc1)NC(=O)c1nc[nH]c1C(=O)N1CCc2ccccc2C1", "Potency": "inconclusive [inhibitor, single point]"}, {"compound": "Cc1cc(NC(=S)NC(=O)C2CC2)ccc1Br", "Potency": "active: 2.51 µM"}, {"compound": "CC(C)(C)NC(=O)c1cc(NC(=O)c2cccs2)cc(NC(=O)c2cccs2)c1", "Potency": "inconclusive [inhibitor, single point]"}, {"compound": "CCOc1cc(/C=C/c2nc3cc(C)c(C)cc3s2)ccc1OCC(=O)N1CCOCC1", "Potency": "inactive"}, {"compound": "O=C(O)CCCc1nc(-c2ccccc2)no1", "Potency": "inconclusive [inhibitor, full curve]"}, {"compound": "CNC(=O)c1sc(Nc2ccc(OCc3ccccc3)cc2)nc1C", "Potency": "inconclusive [inhibitor, single point]"}, {"compound": "COc1cccc(S(=O)(=O)Nc2ccc(C(=O)N3CCCCCC3)cc2)c1", "Potency": "active: 8.91 µM"}, {"compound": "COc1ccc(NC(=S)Nc2ccc3nccnc3c2)cc1", "Potency": "inconclusive [inhibitor, single point]"}, {"compound": "Cc1ccc(-c2cc(C(=O)NCc3cnn(C)c3)c3cc(Br)ccc3n2)cc1", "Potency": "inconclusive [inhibitor, single point]"}, {"compound": "COc1cc(/C=C/C(=O)N2CCC=CC2=O)cc(OC)c1OC", "Potency": "active: 7.94 µM"}]}]}
